# Assay results taken from the supplement of paper PMC8728848.
# The list shows a part of the results.
# B1: UDA (Urtica dioica), P11218 (protein)
# chain: MMMRFLSAVVIMSSAMAVGLVSAQRCGSQGGGGTCPALWCCSIWGWCGDSEPYCGRTCENKCWSGERSDHRCGAAVGNPPCGQDRCCSVHGWCGGGNDYCSGSKCQYRCSSSVRGPRVALSGNSTANSIGNVVVTEPLFDQMFSHRKDCPSQGFYSYHSFLVAAESFPAFGTIGDVATRKREVAAFLAHISQATSGERSDVENPHAWGLCHINTTTVTENDFCTSSDWPCAAGKKYSPRGPIQLTHNFNYGLAGQAIGEDLIQNPDLVEKDPIISFKTALWFWMSQHDNKPSCHDIVLNANSAANRIPNKGVIGNIISRAFGHDDFAVRSSSIGFYKRYCDMLGVSYGHDLKYWFDNTPSSEFQRIQMRVAA
# How the values were obtained:
# Test in all cases: glycan array binding signal (z-score within array); higher = stronger binding
# Conditions in all cases: glycan notation: IUPAC condensed, linker removed
# [1] = molecular target: Gal(b1-4)GlcNAc(b1-3)Gal(b1-4)GlcNAc(b1-3)Gal(b1-4)GlcNAc(b1-2)[Gal(b1-4)GlcNAc(b1-3)Gal(b1-4)GlcNAc(b1-3)Gal(b1-4)GlcNAc(b1-6)]Man(a1-6)[Gal(b1-4)GlcNAc(b1-3)Gal(b1-4)GlcNAc(b1-3)Gal(b1-4)GlcNAc(b1-2)Man(a1-3)]Man(b1-4)GlcNAc(b1-4)[Fuc(a1-6)]GlcNAc
# In short: (§1)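 Glycan array data came from 3228 arrays in the Consortium for Functional Glycomics database, and only arrays with an available protein sequence were kept. Glycan names were put into IUPAC-condensed notation, and columns mapping to the same glycan were averaged. The binding signal is a within-array Z-score, averaged across arrays of one protein sequence run at different concentrations or buffers and across linkers. A negative Z-score can be read as non-binding.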
# [2] = molecular target: Gal(b1-4)GlcNAc(b1-3)Gal(b1-4)GlcNAc(b1-3)Gal(b1-4)GlcNAc(b1-3)Gal(b1-4)GlcNAc(b1-2)Man(a1-3)[Gal(b1-4)GlcNAc(b1-3)Gal(b1-4)GlcNAc(b1-3)Gal(b1-4)GlcNAc(b1-3)Gal(b1-4)GlcNAc(b1-2)Man(a1-6)]Man(b1-4)GlcNAc(b1-4)GlcNAc
# In short: as §1
# [3] = molecular target: Gal(b1-4)GlcNAc(b1-3)Gal(b1-4)GlcNAc(b1-3)Gal(b1-4)GlcNAc(b1-3)Gal(b1-4)GlcNAc(b1-2)Man(a1-3)[Gal(b1-4)GlcNAc(b1-3)Gal(b1-4)GlcNAc(b1-3)Gal(b1-4)GlcNAc(b1-3)Gal(b1-4)GlcNAc(b1-2)Man(a1-6)]Man(b1-4)GlcNAc(b1-4)[Fuc(a1-6)]GlcNAc
# In short: as §1
# [4] = molecular target: Gal(b1-4)GlcNAc(b1-3)Gal(b1-4)GlcNAc(b1-3)Gal(b1-4)GlcNAc(b1-3)Gal(b1-4)GlcNAc(b1-2)[Gal(b1-4)GlcNAc(b1-3)Gal(b1-4)GlcNAc(b1-3)Gal(b1-4)GlcNAc(b1-3)Gal(b1-4)GlcNAc(b1-6)]Man(a1-6)[Gal(b1-4)GlcNAc(b1-3)Gal(b1-4)GlcNAc(b1-3)Gal(b1-4)GlcNAc(b1-3)Gal(b1-4)GlcNAc(b1-2)Man(a1-3)]Man(b1-4)GlcNAc(b1-4)[Fuc(a1-6)]GlcNAc
# In short: as §1
# [5] = molecular target: Gal(b1-4)GlcNAc(b1-3)Gal(b1-4)GlcNAc(b1-3)Gal(b1-4)GlcNAc(b1-3)Gal(b1-4)GlcNAc(b1-3)Gal(b1-4)GlcNAc(b1-2)Man(a1-3)[Gal(b1-4)GlcNAc(b1-3)Gal(b1-4)GlcNAc(b1-3)Gal(b1-4)GlcNAc(b1-3)Gal(b1-4)GlcNAc(b1-3)Gal(b1-4)GlcNAc(b1-2)Man(a1-6)]Man(b1-4)GlcNAc(b1-4)GlcNAc
# In short: as §1
# [6] = molecular target: Gal(b1-4)GlcNAc(b1-3)Gal(b1-4)GlcNAc(b1-3)Gal(b1-4)GlcNAc(b1-3)Gal(b1-4)GlcNAc(b1-3)Gal(b1-4)GlcNAc(b1-2)Man(a1-3)[Gal(b1-4)GlcNAc(b1-3)Gal(b1-4)GlcNAc(b1-3)Gal(b1-4)GlcNAc(b1-3)Gal(b1-4)GlcNAc(b1-3)Gal(b1-4)GlcNAc(b1-2)Man(a1-6)]Man(b1-4)GlcNAc(b1-4)[Fuc(a1-6)]GlcNAc
# In short: as §1
# [7] = molecular target: Gal(b1-4)GlcNAc(b1-3)Gal(b1-4)GlcNAc(b1-3)Gal(b1-4)GlcNAc(b1-3)Gal(b1-4)GlcNAc(b1-3)Gal(b1-4)GlcNAc(b1-2)[Gal(b1-4)GlcNAc(b1-3)Gal(b1-4)GlcNAc(b1-3)Gal(b1-4)GlcNAc(b1-3)Gal(b1-4)GlcNAc(b1-3)Gal(b1-4)GlcNAc(b1-6)]Man(a1-6)[Gal(b1-4)GlcNAc(b1-3)Gal(b1-4)GlcNAc(b1-3)Gal(b1-4)GlcNAc(b1-3)Gal(b1-4)GlcNAc(b1-3)Gal(b1-4)GlcNAc(b1-2)Man(a1-3)]Man(b1-4)GlcNAc(b1-4)[Fuc(a1-6)]GlcNAc
# In short: as §1
# [8] = molecular target: Gal(b1-4)GlcNAc(b1-3)Gal(b1-4)GlcNAc(b1-3)Gal(b1-4)GlcNAc(b1-3)Gal(b1-4)GlcNAc(b1-3)Gal(b1-4)GlcNAc(b1-3)Gal(b1-4)GlcNAc(b1-2)Man(a1-3)[Gal(b1-4)GlcNAc(b1-3)Gal(b1-4)GlcNAc(b1-3)Gal(b1-4)GlcNAc(b1-3)Gal(b1-4)GlcNAc(b1-3)Gal(b1-4)GlcNAc(b1-3)Gal(b1-4)GlcNAc(b1-2)Man(a1-6)]Man(b1-4)GlcNAc(b1-4)GlcNAc
# In short: as §1
# [9] = molecular target: Gal(b1-4)GlcNAc(b1-3)Gal(b1-4)GlcNAc(b1-3)GalNAc
# In short: as §1
# [10] = molecular target: Gal(b1-4)GlcNAc(b1-3)Gal(b1-4)GlcNAc(b1-3)[Gal(b1-4)GlcNAc(b1-3)Gal(b1-4)GlcNAc(b1-6)]GalNAc
# In short: as §1
# [11] = molecular target: Gal(b1-4)GlcNAc(b1-3)Gal(b1-4)GlcNAc(b1-6)[Gal(b1-3)]GalNAc
# In short: as §1
# [12] = molecular target: Gal(b1-4)GlcNAc(b1-3)Gal(b1-4)[Fuc(a1-3)]GlcNAc(b1-3)Gal(b1-4)[Fuc(a1-3)]GlcNAc
# In short: as §1
# [13] = molecular target: Gal(b1-4)GlcNAc(b1-3)GalNAc
# In short: as §1
# [14] = molecular target: Gal(b1-4)GlcNAc(b1-3)[Fuc(a1-3)GlcNAc(b1-6)]Gal(b1-4)Glc
# In short: as §1
# [15] = molecular target: Gal(b1-4)GlcNAc(b1-3)[Gal(b1-4)GlcNAc(b1-6)]Gal(b1-4)GlcNAc
# In short: as §1
# [16] = molecular target: Gal(b1-4)GlcNAc(b1-3)[Gal(b1-4)GlcNAc(b1-6)]GalNAc
# In short: as §1
# [17] = molecular target: Gal(b1-4)GlcNAc(b1-3)[GlcNAc(b1-6)]Gal(b1-4)GlcNAc
# In short: as §1
# [18] = molecular target: Gal(b1-4)GlcNAc(b1-6)Gal(b1-4)GlcNAc
# In short: as §1
# [19] = molecular target: Gal(b1-4)GlcNAc(b1-6)GalNAc
# In short: as §1
# [20] = molecular target: Gal(b1-4)GlcNAc(b1-6)[Gal(b1-3)]GalNAc
# In short: as §1
# [21] = molecular target: Gal(b1-4)GlcNAc(b1-6)[Gal(b1-4)GlcNAc(b1-3)]GalNAc
# In short: as §1
# [22] = molecular target: Gal(b1-4)GlcNAc6P
# In short: as §1
# [23] = molecular target: Gal(b1-6)Gal
# In short: as §1
binder,measurement,setting,value
B1,glycan array binding signal (z-score),[1],-0.14
same,glycan array binding signal (z-score),[2],0.01
same,glycan array binding signal (z-score),[3],0.114
same,glycan array binding signal (z-score),[4],-0.041
same,glycan array binding signal (z-score),[5],0.34
same,glycan array binding signal (z-score),[6],1.52
same,glycan array binding signal (z-score),[7],0.237
same,glycan array binding signal (z-score),[8],0.731
same,glycan array binding signal (z-score),[9],-0.132
same,glycan array binding signal (z-score),[10],-0.112
same,glycan array binding signal (z-score),[11],-0.119
same,glycan array binding signal (z-score),[12],-0.19
same,glycan array binding signal (z-score),[13],-0.177
same,glycan array binding signal (z-score),[14],-0.173
same,glycan array binding signal (z-score),[15],0.029
same,glycan array binding signal (z-score),[16],-0.257
same,glycan array binding signal (z-score),[17],-0.172
same,glycan array binding signal (z-score),[18],0.522
same,glycan array binding signal (z-score),[19],-0.162
same,glycan array binding signal (z-score),[20],-0.18
same,glycan array binding signal (z-score),[21],-0.175
same,glycan array binding signal (z-score),[22],-0.175
same,glycan array binding signal (z-score),[23],-0.173
